Assay results from the supplement of paper PMC4967469.
Lines with a small IC50 respond at low doses; a limit (>, <) means that the fit lies beyond the doses tested. AUC sums up the same curve from the lowest dose to the 256-fold higher top dose; the more sensitive the line, the further below 1.

Each cell line was assayed with COc1ccc(C2=N[C@@H](c3ccc(Cl)cc3)[C@@H](c3ccc(Cl)cc3)N2C(=O)N2CCNC(=O)C2)c(OC(C)C)c1 [Nutlin-3a] (assay: Viability of human cancer cell lines after 72 h of drug (GDSC screen)).
Description: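 Human cancer cell lines in 384-well plates, medium with 10% serum, drug for 72 h over a 256-fold dose range (nine 2-fold or five 4-fold steps up to the top dose). Adherent lines were fixed and stained with the nucleic acid dye Syto60, suspension lines read with resazurin; signal relative to control wells, capped at 0 and 100%. One two-parameter sigmoid per drug and line, fitted in a mixed model over all curves with the slope shared within a line.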

Row | Cell Line | AUC | IC50 [µM]
1 | PANC-10-05 (pancreas, adherent, top dose 4 µM) | 0.981 | > 4
2 | PC-3 (prostate, adherent, top dose 4 µM) | 0.971 | > 4
3 | PC-3 [JPC-3] (lung adenocarcinoma, adherent, top dose 8 µM) | 0.977 | > 8
4 | PC-14 (lung adenocarcinoma, adherent, top dose 8 µM) | 0.988 | > 8
5 | PCI-4B (head and neck, adherent, top dose 8 µM) | 0.964 | > 8
6 | PCI-6A (head and neck, adherent, top dose 8 µM) | 0.955 | > 8
7 | PCI-15A (head and neck, adherent, top dose 8 µM) | 0.988 | > 8
8 | PCI-30 (head and neck, adherent, top dose 8 µM) | 0.95 | > 8
9 | PE/CA-PJ15 (head and neck, adherent, top dose 8 µM) | 0.955 | > 8
10 | PEO1 (ovary, adherent, top dose 8 µM) | 0.986 | > 8
11 | PF-382 (T-cell lymphoblastic leukaemia, suspension, top dose 8 µM) | 0.991 | > 8
12 | PFSK-1 (medulloblastoma, adherent, top dose 8 µM) | 0.937 | > 8
13 | PL4 (pancreas, adherent, top dose 8 µM) | 0.987 | > 8
14 | PSN1 (pancreas, adherent, top dose 8 µM) | 0.991 | > 8
15 | PWR-1E (prostate, adherent, top dose 8 µM) | 0.984 | > 8
16 | QGP-1 (pancreas, adherent, top dose 8 µM) | 0.974 | > 8
17 | QIMR-WIL (acute myeloid leukaemia, suspension, top dose 8 µM) | 0.79 | 3.44
18 | RC-K8 (B-cell lymphoma, suspension, top dose 8 µM) | 0.915 | > 8
19 | RCC10RGB (kidney, adherent, top dose 8 µM) | 0.852 | > 8
20 | RCC-AB (kidney, adherent, top dose 8 µM) | 0.831 | 7.38
21 | RCC-ER (kidney, adherent, top dose 8 µM) | 0.986 | > 8

Row | Cell Line | AUC | IC50 [µM]
22 | RCC-FG2 (kidney, adherent, top dose 8 µM) | 0.975 | > 8
23 | RCC-JF (kidney, adherent, top dose 8 µM) | 0.772 | 3.47
24 | RCC-JW (kidney, adherent, top dose 8 µM) | 0.796 | 3.85
25 | RCC-MF (kidney, adherent, top dose 8 µM) | 0.867 | > 8
26 | RCH-ACV (B-cell leukaemia, suspension, top dose 8 µM) | 0.757 | 2.32
27 | RCM-1 (large intestine, adherent, top dose 8 µM) | 0.977 | > 8
28 | REH (B-cell leukaemia, suspension, top dose 8 µM) | 0.879 | 7.69
29 | RERF-GC-1B (stomach, adherent, top dose 4 µM) | 0.985 | > 4
30 | RERF-LC-KJ (lung adenocarcinoma, adherent, top dose 8 µM) | 0.984 | > 8
31 | RERF-LC-MS (lung adenocarcinoma, adherent, top dose 8 µM) | 0.987 | > 8
32 | RERF-LC-Sq1 (lung squamous cell carcinoma, adherent, top dose 8 µM) | 0.923 | > 8
33 | RF-48 (stomach, adherent, top dose 8 µM) | 0.87 | > 8
34 | RH-1 (rhabdomyosarcoma, adherent, top dose 8 µM) | 0.976 | > 8
35 | RH-18 (rhabdomyosarcoma, adherent, top dose 8 µM) | 0.706 | 2.09
36 | RH-41 (rhabdomyosarcoma, adherent, top dose 4 µM) | 0.963 | > 4
37 | RKN (ovary, adherent, top dose 8 µM) | 0.961 | > 8
38 | RL (B-cell lymphoma, suspension, top dose 8 µM) | 0.99 | > 8
39 | RO82-W-1 (thyroid, adherent, top dose 8 µM) | 0.908 | > 8
40 | ROS-50 (B-cell leukaemia, suspension, top dose 8 µM) | 0.964 | > 8
41 | RPMI-2650 (head and neck, adherent, top dose 8 µM) | 0.869 | > 8
42 | RPMI-6666 (Hodgkin lymphoma, suspension, top dose 8 µM) | 0.81 | 5.29

Row | Cell Line | AUC | IC50 [µM]
43 | RPMI-7951 (melanoma, adherent, top dose 8 µM) | 0.978 | > 8
44 | RPMI-8226 (myeloma, suspension, top dose 8 µM) | 0.981 | > 8
45 | RPMI-8402 (T-cell lymphoblastic leukaemia, suspension, top dose 8 µM) | 0.98 | > 8
46 | RPMI-8866 (chronic myeloid leukaemia, suspension, top dose 8 µM) | 0.673 | 1.46
47 | RS4-11 (leukaemia, suspension, top dose 8 µM) | 0.738 | 2.23
48 | RT4 (bladder, adherent, top dose 8 µM) | 0.987 | > 8
49 | RVH-421 (melanoma, adherent, top dose 8 µM) | 0.801 | 5.72
50 | RXF393 (kidney, adherent, top dose 8 µM) | 0.922 | > 8
51 | Raji (Burkitt lymphoma, suspension, top dose 8 µM) | 0.982 | > 8
52 | Ramos-2G6-4C10 (Burkitt lymphoma, suspension, top dose 8 µM) | 0.941 | > 8
53 | SAS (head and neck, adherent, top dose 8 µM) | 0.951 | > 8
54 | SAT (head and neck, adherent, top dose 8 µM) | 0.913 | > 8
55 | SBC-1 (small cell lung carcinoma, suspension, top dose 8 µM) | 0.989 | > 8
56 | SBC-3 (small cell lung carcinoma, adherent, top dose 8 µM) | 0.862 | 5.86
57 | SBC-5 (small cell lung carcinoma, adherent, top dose 8 µM) | 0.989 | > 8
58 | SCC90 (head and neck, adherent, top dose 8 µM) | 0.981 | > 8
59 | SCC-9 (head and neck, adherent, top dose 8 µM) | 0.975 | > 8
60 | SCC-15 (head and neck, adherent, top dose 8 µM) | 0.947 | > 8
61 | SCC-25 (head and neck, adherent, top dose 8 µM) | 0.983 | > 8
